For 68 variants, self-cleavage results are on record in the RNAGym collection of RNA variant scans (doi:10.1093/nar/gkz1192).

First the molecules themselves.
B1: CPEB3 Ribozyme (parent)
chain: UAACAGGGGGCCACAGCAGAAGCGUUCACGUCGCAGCCCCUGUCAGAUUCUGGUGAAUCUGCGAAUUCUGCUGUAUAUCUC

Read counts are not given, so values of variants with three or more changes are uncertain.

The data set covers variants of B1. In words: self-cleavage, relative activity (ratio to wild type); higher = more cleavage; in vitro, sequencing. In short, it runs like this: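 For each CPEB3 ribozyme variant, relative activity is its cleaved/total read fraction divided by the unmutated ribozyme's. Barcoded error-prone PCR libraries were transcribed by T7 RNA polymerase (5 hours, 37°C) and held in DNase I for 15 min before an EDTA stop, with cleavage occurring throughout. Template-switching reverse transcription and Illumina sequencing were used to read the RNAs. A 5-read minimum applied, and results are the mean of three batches.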
Consider UAACAGGGGGCCACAGCAGAAGCGUACACGUCGCAGCCCCUGUCAGAUUCUGGUAAAUCUGCUAAUUCUGCUGUAUAUCUC, for which the self-cleavage worked out at 0.56.
With UAACAGGGGGCCACAGCAGAAGCGUACACGUCGCAGCCCCUGUCAGAUUCAGGUGAAUCUGCGAAUUCUGCUGUAAAUCUC, the self-cleavage amounted to 0.76.
With UAACAGGGGGCCACAGCAGAAGCGUCCGCGUCGCAGCCCCUGUCAGAUUCUGGUGAACCUGCGAAUCCAGCUGAAUAUCUC, the self-cleavage amounted to 0.05.
Regarding UAACAGGGGGCCACAGCAGAAGCGUCCUCGUCGCAGCCCCUGGCAGAUUCUGGUGAAUCUGCGAAUUCUGCUGUAUAUCUC, the self-cleavage was determined as 0.34.
On to UAACAGGGGGCCACAGCAGAAGCGUCCUCGUCGCAGCCCCUGUCAGGUUCUGGUGAAUCUCCGAAUUCUGCGGUAUUUCUC, for which the self-cleavage was found to be 0.1.
The value for UAACAGGGGGCCACAGCAGAAGCGUACACGUCGCAGCCCCUGUCAGACCCUGGUGAAUCUGCGAAUUCUGCUGGUUACCUC was 0.31; that for UAACAGGGGGCCACAGCAGAAGCGUACACGUCGCAGCCCCUGUCAGAUUCUGGUGAAUCUGCGAACUCUGCUGUAUAUCCC was 0.57.
As to UAACAGGGGGCCACAGCAGAAGCGUACACGUCGCAGCCCCUGACAGAUCCUGGUGAAUCUGCGUAUUCUGCUGUAUAUCUC, the self-cleavage turned out to be 0.1.
The value for UAACAGGGGGCCACAGCAGAAGCGUCCUCGUCGCUGCCCCUGUCAGGUUCUGGUGAAUCUGCGAAUCCUGCCGUAUAUCUC was 0.09.
On to UAACAGGGGGCCACAGCAGAAGCGUCCUCGUCGCAGCCCCUGUCAGAUUCUGGUGAAUCUGCGAAUUCUGCCGUAUAUCUC, for which the self-cleavage came out at 0.28.
As to UAACAGGGGGCCACAGCAGAAGCGUACACGUCGCAGCCCCUGUCAGAUUCCGGUGAAACUGCGAAUUCUGCUGUAUAUCUC, the self-cleavage came to 0.11.
Take UAACAGGGGGCCACAGCAGAAGCGUCCGCGUCGCAGCCCCUGUCAGAUUCUGUUGAAUCUGCGAAUUCUGCUGUAUAUCUC: the self-cleavage is 0.25.
For UAACAGGGGGCCACAGCAGAAGCGUACACAUCGCAGCCCCUGUCAGAUUCUGGUGAAUCUACGAAUUCUGCUGUAUAUCUC, the self-cleavage came to 0.06.
Consider UAACAGGGGGCCACAGCAGAAGCGUACACGUCGCAGCCCCCGUCAGGUUCUGGUGAAUCUGCGAAUUCUGCUGUGUAUCCC, for which the self-cleavage is 0.27.
The same measure for UAACAGGGGGCCACAGCAGAAGCGUACACGUCGCAGCCCCUGUCAGAUUUUGGUGAAUCUGCGGAUACAGCUAUGUAUCUC: 0.16; for UAACAGGGGGCCACAGCAGAAGCGUACACGUCGCAGCCCCUGUCAGAUUCUGGUGAAUCUGCGAAACCUGCUGUGUACCUC: 0.05; for UAACAGGGGGCCACAGCAGAAGCGUCCUCGUCGCAGCCCCUGUCAGGUUCUGGUGUAUCUGUGAAUUCUGAUGUAUAUCUC: 0.09.
As for UAACAGGGGGCCACAGCAGAAGCGUACACGUCGCAGCCCCGGUCGGAUUCUGGUGAAUCUGCGAAUUCUGCUGUAUAUCUC, the self-cleavage is 0.24.
In the case of UAACAGGGGGCCACAGCAGAAGCGUACACGUCGCAGCCCCCGUCAGGUUCUGGUGACUCUGCGAAUUCUGCUGUAUAUCUC, the self-cleavage turned out to be 0.18.
On to UAACAGGGGGCCACAGCAGAAGCGUCCGCGUCGUAGCCCCUGUCAGACUCUGGUGAAUCUGCGUAUUCUGCUGUAUAUCUC, for which the self-cleavage was 0.15.
On to UAACAGGGGGCCACAGCAGAAGCGUACACGUCACGGCCCCUGUCAGAUAUUGGUGAAUCUGCGAAUUCUGCUGUAUAUCUC, for which the self-cleavage stood at 0.22.
The same measure for UAACAGGGGGCCACAGCAGAAGCGUACACGUCGCAGCCCCCGUCUGAUUCUGGUGGAUCUGCGAAUUCUGCUGUAUAUCUC: 0.25.
Take UAACAGGGGGCCACAGCAGAAGCGUCCACGUCGCGGCCCCUGUCAGAUUCUGGUGAGUCUGCGAACUCUGCUGUAUAUCUC: the self-cleavage amounted to 0.4.
Take UAACAGGGGGCCACAGCAGAAGCGUCCCCGACGCUGCCCCUGUCAGAUUCAGGUGAAUCUGCGAAUUCUGCUGUAUAUCUC: the self-cleavage was 0.17.
On to UAACAGGGGGCCACAGCAGAAGCGUACACGUCGCAGCCCCAGUCAGACUCCGGUGAAUCAGCGAAUUCUGCUGUAUAUCUC, for which the self-cleavage is 0.1.
The value for UAACAGGGGGCCACAGCAGAAGCGUCCGCGUCGCAGCCCCAGUCAGAUUCUGGUGAAUCUGCGAAUUCUGCUAUAUAUCUC was 0.48; that for UAACAGGGGGCCACAGCAGAAGCGUCCUCGUCGCAGCCCCAGUCAGAUUCUGGUGAAUCUGCGAAUUCUGCCGUAUAUCUC was 0.12; that for UAACAGGGGGCCACAGCAGAAGCGUCCGCGUCGCAGCCCCCGUCAGACUCUGGUGAAUCUGCGAAUUCUGCUGUAUAACUC was 0.23.
In the case of UAACAGGGGGCCACAGCAGAAGCGUACACGUCGCAGCCCCUGCCAGAUUCUGGUGGAUCUGCGAGUUCUGCUGUAUAUCUC, the self-cleavage turned out to be 0.16.
Take UAACAGGGGGCCACAGCAGAAGCGUACACGUCGCAGCCCCUGUCAGAUUCUGGUGAAUCUGCGAAUUCCGCUGGAUAUCUC: the self-cleavage came out at 0.67.
With UAACAGGGGGCCACAGCAGAAGCGUCCUCGUCGCAGCCCCUGUCAGAUUCUGGUGAAUCCGCGAAUUCAGCUGUAUAUCUC, the self-cleavage came to 0.17.
UAACAGGGGGCCACAGCAGAAGCGUCCCCGUCGCAGCCCCUGUCAGAUUCUGGUGAAUCUGCGAAUUCAGCGGUAUACCUC: the self-cleavage was 0.13.
With UAACAGGGGGCCACAGCAGAAGCGUACACGUCGCAGCCCCUGUCAGAUUCUGGUGAAUCUGCGAAUCCUGCUGUAUAACUC, the self-cleavage came out at 0.14.
For UAACAGGGGGCCACAGCAGAAGCGUACACGUCGCAGCCCCCGUCAGAUUCCGGUGAAUCUGCGAAUUCUGCUGUAUAUCUC, the self-cleavage was determined as 0.74.
As for UAACAGGGGGCCACAGCAGAAGCGUACACGUCGCAGCCCCUGUCAGAUCCUGGUGGAUCUGCGAAUUCUGCCGUAUAUCUC, the self-cleavage is 1.1.
Take UAACAGGGGGCCACAGCAGAAGCGUACACGUCGCAGCCCCUGUCAGAUUAUGGUGAGUCUGCGAAUUCUGCUGUAUAUCUC: the self-cleavage was determined as 0.3.
The value for UAACAGGGGGCCACAGCAGAAGCGUACACGUCGCAGCCCCUGUCAGAUCCUGGUGAAUCUGCGAAUUCUGCUGUAUAACUC was 0.28; that for UAACAGGGGGCCACAGCAGAAGCGUCCGCGUCGCAGCCCCGGUUGGAUUCUGGUGAAUCUGCGAAUUCUGCUGCAUAUCUC was 0.28; that for UAACAGGGGGCCACAGCAGAAGCGUACACGUCGCAGCCCUUGUCAGACUCUGGUGAAUCUGCGAAUUCUGCUGUAUAUCGC was 0.29.
On to UAACAGGGGGCCACAGCAGAAGCGUACACGUCGCAGCCCCCGUCAGAUUCUGGUGAAUCUGCGAAUUCAGCUGUAUAUCUC, for which the self-cleavage is 0.32.
With UAACAGGGGGCCACAGCAGAAGCGUACACGUCGCAGCCCCUGUCAGAUUCUGGUGAAUCUGCGAAUCCUGCUAUAUAUCUC, the self-cleavage was 0.34.
Regarding UAACAGGGGGCCACAGCAGAAGCGUACACGUCGCAGCCCCUGUCAGACUCUGGUGAAUCUGCGGAUUCCGCUGUAUAUCUC, the self-cleavage was determined as 0.26.
The same measure for UAACAGGGGGCCACAGCAGAAGCGUACACGUCGCAGCCCCCGUCAGAUUCUGGUGUAUCUGCGAAUUCAGCUGUAUAUCUC: 0.16; for UAACAGGGGGCCACAGCAGAAGCGUACACGUCGCAGCCCCUGUCAGAUUCUGGUGAAUCUGCGAAUUCCGCUGUACUUCUC: 0.47; for UAACAGGGGGCCACAGCAGAAGCGUACACGCCGCGGCCCCUGUCAGAUUCUGGUGAAUCCGCGAAUUCUGCUGUAUAUCUC: 0.38.
The value for UAACAGGGGGCCACAGCAGAAGCGUCCGCGUUGCAGCCCCUGUCAGAUUCUGGUGAAUCUGCGAAUUCUGCUGUACAUCCC was 0.24; that for UAACAGGGGGCCACAGCAGAAGCGUACACGUCGCAGCCCCUGUCAGAUUCCGGCGAAUCUGCGAAUUCUGCUGUAUAUCUC was 0.77; that for UAACAGGGGGCCACAGCAGAAGCGUACACGUCGCAGCCCCUGUCAGAUUCCGGUGAAUCUGCGAGUUCUGCUGUAUAUCUC was 0.62.
Take UAACAGGGGGCCACAGCAGAAGCGUACACGUCGCAGCCCCUGUCAGAUUCUGGUGAAUCUGCGAAUUCCGCUGUAUAACUC: the self-cleavage turned out to be 0.24.
As to UAACAGGGGGCCACAGCAGAAGCGUACACGCCGCAGCCCCUGUCGGAUUCUGGAGAAUCUGCGAACUCUGCUGUAUAUCUC, the self-cleavage is 0.14.
As for UAACAGGGGGCCACAGCAGAAGCGUACACGUCGCAGCCCCUCUCGGAUUCUGGUGAAUCUGCGAAUUCUGCUGUAUAUCUC, the self-cleavage worked out at 0.14.
With UAACAGGGGGCCACAGCAGAAGCGUACACGUCGCAGCCCCUGUCAGAUUCUGGUGAAUCUGCGAAUUCUGCUGUAUACAUC, the self-cleavage came out at 1.
The value for UAACAGGGGGCCACAGCAGAAGCGUCCUCGUCGCAGCCCCCGUCAGACUCUGGUGAAUCUGCGAAUUCUGCUGUAUAUCUC was 0.08; that for UAACAGGGGGCCACAGCAGAAGCGUACACGACGCAGCCCCUGUCAGAUUCUGGUGAAUCUGCGGAUUCAGCUGUAUAUCUC was 0.13; that for UAACAGGGGGCCACAGCAGAAGCGUACACGUCGCAGCCCCUGUCAGAUUCUGGCGAAUCUGCGAAUUCUGCUGUAUAUCCC was 0.94.
The value for UAACAGGGGGCCACAGCAGAAGCGUCCGCGUCGCAGCCCCUGUCAGAUUCUGGUGAAUCUACGAAUCCUGCUGUAUAUCUC was 0.14; that for UAACAGGGGGCCACAGCAGAAGCGUACACGCCGCAGCCCCUGUCAGAUUCUGGUGAGUCUGCGAAUUCUGCUGUAUAUCUC was 0.37.
UAACAGGGGGCCACAGCAGAAGCGUACACGUCGCAGCCCCAGUCUGAUUCUGGUGAAUCUACGAAUUCUGCCGUAUAUCUC: the self-cleavage was 0.13.
The same measure for UAACAGGGGGCCACAGCAGAAGCGUACACGUCGCAGCCCCUGUCAGAUUCUGGUGAACCUGCGAAUUCUGCCGUAUAUCCC: 0.41.
The same measure for UAACAGGGGGCCACAGCAGAAGCGUACACGACGGAGCCCCUGUCAGAUUCUGGUGAAUCUGCGAAUUCCGCCGUAUAUCUC: 0.14.
The value for UAACAGGGGGCCACAGCAGAAGCGUACACGCCGCAGCCCCUGUCGGAUUCUGGAGAAUCUGCGAAUUCUGCUGUAUAUCUC was 0.54; that for UAACAGGGGGCCACAGCAGAAGCGUACACGUCGCAGCCCCUGUCAGAUUCUGGUGAAUCUGCGAAUUCAGCUGUAUAUCCC was 0.53.
With UAACAGGGGGCCACAGCAGAAGCGUACACGUCGCAGCCCCUGUCAGAUUCUGGUGAAUCUGCGAACUCUGAUGGAUAUCUC, the self-cleavage came out at 0.17.
For UAACAGGGGGCCACAGCAGAAGCGUACACGUCGCAGCCCCCGUCAGAUUCUGGUGUAUCUGCGAAUCCUGCUGUAUAUCUC, the self-cleavage turned out to be 0.14.
The same measure for UAACAGGGGGCCACAGCAGAAGCGUACACGUCGCAGCCCCUGUCAGAAUCUGGAGAAUCUGCGGAUUCUGCUGUAUACCUC: 0.14; for UAACAGGGGGCCACAGCAGAAGCGUACACGUCGCAGCCCCUGUCAGAUUCUGGUGAAUACGCGAAUUCUGCUGUAUAUCUC: 0.12.
For UAACAGGGGGCCACAGCAGAAGCGUACACGUCGCAGCCCCUGUCAGAUUCUGGCGAAUCAGCGAAUUCUGCUGUAUAUCUC, the self-cleavage worked out at 0.82.
With UAACAGGGGGCCACAGCAGAAGCGUACACGUCGCAGCCCCUGUCAGAUUCUGGAGAGUCUGCGAAUUCUGCUGUAUAUCUC, the self-cleavage is 0.71.
